Data published in publication PMC4336329 (PLoS ONE, 2015).
The campaign covered roughly 310,000 compounds. About 14,000 (4.5%) showed an effect of 50% or more. The effect is printed as a negative number. The list shows a part of the results.

These compounds were tested against human ether-à-go-go-related gene (hERG) potassium channel (human, UniProt Q12809) (assay: primary screen, population patch clamp on CHO cells stably expressing hERG).
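Further: peak tail current of the secondary pulse compared with the same well before compound.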

Chain of human ether-à-go-go-related gene (hERG) potassium channel (Q12809 whole entry, looked up): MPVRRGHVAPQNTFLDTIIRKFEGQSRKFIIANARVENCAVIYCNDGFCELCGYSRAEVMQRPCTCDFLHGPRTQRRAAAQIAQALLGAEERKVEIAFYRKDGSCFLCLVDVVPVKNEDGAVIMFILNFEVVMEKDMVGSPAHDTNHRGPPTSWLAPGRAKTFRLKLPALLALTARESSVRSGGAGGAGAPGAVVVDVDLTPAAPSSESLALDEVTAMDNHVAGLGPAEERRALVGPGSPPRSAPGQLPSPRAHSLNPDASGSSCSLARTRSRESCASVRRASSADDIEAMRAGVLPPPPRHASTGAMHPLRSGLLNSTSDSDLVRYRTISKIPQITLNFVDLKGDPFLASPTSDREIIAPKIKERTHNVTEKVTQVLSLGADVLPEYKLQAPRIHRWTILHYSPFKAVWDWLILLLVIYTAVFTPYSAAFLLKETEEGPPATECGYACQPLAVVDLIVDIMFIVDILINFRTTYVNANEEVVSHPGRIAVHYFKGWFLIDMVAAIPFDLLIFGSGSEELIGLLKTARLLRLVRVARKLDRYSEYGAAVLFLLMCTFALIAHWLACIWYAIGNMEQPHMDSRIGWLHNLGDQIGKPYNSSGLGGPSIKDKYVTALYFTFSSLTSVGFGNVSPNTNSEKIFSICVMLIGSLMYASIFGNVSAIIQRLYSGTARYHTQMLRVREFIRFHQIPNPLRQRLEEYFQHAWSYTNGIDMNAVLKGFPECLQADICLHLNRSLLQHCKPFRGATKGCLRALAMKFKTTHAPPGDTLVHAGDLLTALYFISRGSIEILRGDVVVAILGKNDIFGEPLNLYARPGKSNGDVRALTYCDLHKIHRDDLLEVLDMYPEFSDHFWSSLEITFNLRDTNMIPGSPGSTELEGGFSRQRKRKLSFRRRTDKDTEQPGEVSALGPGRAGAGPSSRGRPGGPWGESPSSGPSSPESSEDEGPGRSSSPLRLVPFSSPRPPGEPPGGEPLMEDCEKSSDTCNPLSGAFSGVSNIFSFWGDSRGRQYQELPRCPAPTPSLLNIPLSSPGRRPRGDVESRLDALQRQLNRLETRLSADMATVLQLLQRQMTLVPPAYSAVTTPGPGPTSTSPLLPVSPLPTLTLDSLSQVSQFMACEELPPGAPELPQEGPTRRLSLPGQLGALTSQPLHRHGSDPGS

Row | Compound | hERG current change (%, negative = inhibition) at 10uM [%]
1 | c1coc(CNC2C3CC4CC(C3)CC2C4)c1 (stereo not shown) | 4.32
2 | CNCc1ccccc1Sc1cc(O)ccc1O.O=C(O)/C=C\C(=O)O | -19.7
3 | CCOc1ccccc1-c1nc(CN(Cc2cnn(C)c2)C(C)C)c(C)o1 | -23.1
4 | O=C(O)C1C2C=CC(C2)C1C(=O)NC(c1ccccc1)c1ccccc1 (stereo not shown) | -16
5 | O=C(O)/C=C/C(=O)NNc1ncnc2ccccc12 | 20.1
6 | O=C(Nc1ccccc1N1CCCC1)C1CCN(C(=O)c2ccc(F)cc2)CC1 | -27.8
7 | C(=N\Nc1ccc2ccccc2n1)/c1ccc2c(c1)OCO2 | -10.1
8 | CCN(CC)c1ccc(NC(=O)CCS(=O)(=O)c2ccc(Br)cc2)c(C)c1 | 15.9
9 | Nc1ccccc1SC1CC(=O)N(c2ccccc2Cl)C1=O (stereo not shown) | 14.9
10 | COc1ccc2nc(C)cc(SCC(=O)N/N=C/c3ccc(O)cc3O)c2c1 | 2.34
11 | COC(=O)C1=C(C)N(Cc2ccccc2)C(=S)N[C@H]1c1cccc(F)c1 | -1.64
12 | COc1ccc(CCNc2ncnc3sc(C)cc23)cc1OC.Cl | 3.55
13 | N#C/C(C(=O)Nc1ccc(Cl)cc1)=C(/S)Nc1ccccc1 | 26.4
14 | CCNC(=S)N1CCN(C(=O)C(Cc2ccccc2)NC(C)=O)CC1 (stereo not shown) | -1.07
15 | O=C(c1cccnc1)N1CCc2ccccc2C1 | 2.28
16 | CCC(NC(=O)c1cccc(Cn2cc([N+](=O)[O-])cn2)c1)c1ccc(C(C)C)cc1 (stereo not shown) | 1.16
17 | CC(=O)c1ccc(S(=O)(=O)Nc2ccc(-c3ccc4nncn4n3)cc2)cc1 | -15.6
18 | CC(C)(C)CC(C)(C)N1CNC(=S)NC1 | 22.7
19 | CC(=O)Nc1ccc(S(=O)(=O)NCCCCNS(=O)(=O)c2ccc(NC(C)=O)cc2)cc1 | 29
20 | CC(C)(CN=C1NS(=O)(=O)c2ccccc21)CNC(=O)CN1C(=O)c2ccccc2C1=O | -2.48

Row | Compound | hERG current change (%, negative = inhibition) at 10uM [%]
21 | Cc1cc(O)ccc1N=Cc1c(C(F)(F)F)[nH][nH]c1=O | 6.09
22 | O=C(/C=C/c1ccc(F)cc1)NC(=S)Nc1ccccc1 | 4.35
23 | CC1CN(c2ccc(C(=O)c3ccccc3C(=O)O)cc2[N+](=O)[O-])CC(C)O1 (stereo not shown) | 11.6
24 | CC(=O)c1ccc(N2CCN(CC(=O)N(CC(C)C)c3c(N)n(CC(C)C)c(=O)[nH]c3=O)CC2)cc1 | 10.7
25 | CCCC(NS(=O)(=O)c1ccc(OC)cc1)C(=O)O (stereo not shown) | 13
26 | Br.COc1ccc(-c2nc3n(c2C)CCC3)cc1 | -6.52
27 | CC(C)C[C@@H](CO)NC(=O)CC[C@H](NC(=O)OC(C)(C)C)C(=O)N(Cc1ccccc1)Cc1ccccc1 | 5.32
28 | Nc1nnnn1/N=C/c1ccc(Cl)cc1 | 32.6
29 | CC(NC(=O)NCc1cccnc1)(C(F)(F)F)C(F)(F)F | 5.59
30 | CCOC(=O)Nc1cccc(C(=O)O)c1 | 8.63
31 | O=C(Nc1ccccc1N1CCOCC1)c1ccc2c(c1)OCO2 | -7.91
32 | O=C(NCc1cccnc1)c1cccc(S(=O)(=O)N2CCOCC2)c1 | 10
33 | N#CC(C#N)=C(Nc1ccc(F)cc1)SCc1cccc(F)c1 | -10.6
34 | O=c1oc2ccccc2c(O)c1C(c1ccccn1)c1c(O)c2ccccc2oc1=O | 16.3
35 | N#Cc1ccc(C(=O)NCC2CCCCC2)cc1 | -21.6
36 | CC(=O)c1cccc(N(C(=O)CS(=O)CC(=O)Nc2ccc(F)cc2)C(C(=O)NC2CCCCC2)c2ccc(C)o2)c1 (stereo not shown) | 2.01
37 | CCCNC(=O)CSc1nc(COc2ccccc2)nc2ccccc12 | -13.4
38 | O=C(Nc1ccc(F)cc1)C1CC(=O)N(Cc2ccco2)C1 (stereo not shown) | 0.734
39 | CCc1ccc(C(=O)COC(=O)CNC(=O)c2ccc(Br)o2)cc1 | -64
40 | CC(=O)c1cccc(NC(=O)CCCN(C)S(=O)(=O)c2ccc(F)cc2)c1 | -2.1

Row | Compound | hERG current change (%, negative = inhibition) at 10uM [%]
41 | CCc1nn(C(C)C(=O)NCc2ccc(Cl)cc2)c(=O)c2cc3occc3n12 (stereo not shown) | -26.4
42 | CSCC(=O)NC1CCCN(C2Cc3ccccc3C2)C1 (stereo not shown) | -5.38
43 | O=C(CN1CCN(c2ccccn2)CC1)NC1CCCCC1 | -12.7
44 | CCOC(=O)N1CCC(Nc2nc(OC)nc(OC)n2)CC1 | 3.57
45 | CCOc1ccccc1NC(=O)Nc1ccc(OC)nc1 | 14.7
46 | CCn1nc(C)c(Oc2ccccc2O)c1C | -1.54
47 | CCNC(=S)N1CCC(NC(=O)c2ccco2)CC1 | 6.16
48 | Cl.O=C(/C=C/c1ccc(Br)o1)NCCCN1CCOCC1 | 7.91
49 | CC(C)C(NC(=O)c1ccccc1)C(=O)N/N=C\c1ccco1 (stereo not shown) | 8.7
50 | Cc1ccc(S(=O)(=O)N/N=c2\sc3ccccc3n2C)cc1 | 8.7
51 | CN(CC1CCOCC1)C(=O)CC1C(=O)NCCN1Cc1ccc(F)c(F)c1 (stereo not shown) | 19.5
52 | c1ccc(-c2nccc(-c3ccco3)n2)nc1 | 26
53 | O=C(NC(=S)N1CCN(C(c2ccccc2)c2ccccc2)CC1)c1ccc(S(=O)(=O)N2CCOCC2)cc1 | -9.25
54 | COc1ccccc1-n1c(=O)c2c3c(sc2n2c(=S)[nH]nc12)CCC3 | 21.1
55 | O=C(c1cc(=O)c2ccccc2o1)N1CCN(c2cccc(Cl)c2)CC1 | -56.4
56 | Cc1cccc(-c2nnc3sc(-c4ccccc4C)nn23)c1 | 7.95
57 | CCCC(c1nnnn1CC(=O)OCC)N(Cc1cc2ccc(C)cc2[nH]c1=O)C1CCCC1 (stereo not shown) | 8.83
58 | COc1ccc(C(C)=O)cc1COC(=O)c1c(C)nn(-c2ccccc2)c1C | -8.58
